Here are results for 84 compounds from article PMC4336329 (PLoS ONE, 2015).

Structures are written as SMILES. Screen size: about 310,000 compounds; about 14,000 (4.5%) showed an effect of 50% or more. Effects have a minus sign here. This is one part of the list.
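Also: peak tail current of the secondary pulse compared with the same well before compound.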

This test deals with human ether-à-go-go-related gene (hERG) potassium channel (human, UniProt Q12809). The test is described as follows: primary screen, population patch clamp on CHO cells stably expressing hERG.
human ether-à-go-go-related gene (hERG) potassium channel, sequence (Q12809 whole entry, looked up): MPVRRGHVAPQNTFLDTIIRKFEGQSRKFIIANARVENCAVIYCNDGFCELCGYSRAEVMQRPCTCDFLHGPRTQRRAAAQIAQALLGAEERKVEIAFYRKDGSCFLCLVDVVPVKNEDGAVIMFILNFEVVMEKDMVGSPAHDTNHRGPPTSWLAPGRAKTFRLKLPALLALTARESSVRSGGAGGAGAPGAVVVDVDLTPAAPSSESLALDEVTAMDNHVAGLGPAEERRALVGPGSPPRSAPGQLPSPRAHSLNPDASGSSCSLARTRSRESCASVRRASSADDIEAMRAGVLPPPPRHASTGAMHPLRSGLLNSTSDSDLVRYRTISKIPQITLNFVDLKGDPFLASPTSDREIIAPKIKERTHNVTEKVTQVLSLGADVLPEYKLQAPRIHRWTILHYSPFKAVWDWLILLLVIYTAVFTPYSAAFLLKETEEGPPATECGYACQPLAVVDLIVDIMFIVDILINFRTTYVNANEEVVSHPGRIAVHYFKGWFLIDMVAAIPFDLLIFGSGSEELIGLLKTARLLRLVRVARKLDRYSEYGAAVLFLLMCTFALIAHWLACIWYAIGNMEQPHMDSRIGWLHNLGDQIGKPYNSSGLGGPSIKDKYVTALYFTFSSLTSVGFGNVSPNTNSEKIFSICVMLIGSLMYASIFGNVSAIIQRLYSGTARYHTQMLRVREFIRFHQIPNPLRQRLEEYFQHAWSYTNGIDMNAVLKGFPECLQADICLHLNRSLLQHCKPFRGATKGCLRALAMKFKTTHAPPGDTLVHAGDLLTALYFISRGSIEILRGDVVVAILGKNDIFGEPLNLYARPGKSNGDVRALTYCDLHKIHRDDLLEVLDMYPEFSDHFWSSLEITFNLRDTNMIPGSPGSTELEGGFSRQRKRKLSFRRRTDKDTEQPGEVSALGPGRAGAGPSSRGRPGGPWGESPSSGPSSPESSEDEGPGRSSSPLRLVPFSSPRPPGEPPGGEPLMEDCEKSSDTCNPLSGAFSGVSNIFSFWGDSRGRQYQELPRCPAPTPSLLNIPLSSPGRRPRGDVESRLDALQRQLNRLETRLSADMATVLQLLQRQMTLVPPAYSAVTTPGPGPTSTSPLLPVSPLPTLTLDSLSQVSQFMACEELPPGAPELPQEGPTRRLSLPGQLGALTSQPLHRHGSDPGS
On to `O=C(c1c(F)cccc1F)N1CCC(O)(c2cccnc2)CC1`, for which the “hERG current change (%, negative = inhibition) at 10uM” value was -7.47%.
With `CC(C)Nc1cc(C(F)(F)F)nc(-c2ccccn2)n1`, the “hERG current change (%, negative = inhibition) at 10uM” value is -6.66%.
The same measure for `CC[C@H](C)C(C(=O)N1CCN(C(=O)OC(C)(C)C)CC1)n1cc(C(Cc2ccc(O)cc2)NC(=O)OC(C)(C)C)nn1` (stereo partly drawn): 2.29%; for `COc1ccccc1NC(=O)C(C)N1CCN(C/C=C/c2ccccc2)CC1` (stereo not drawn): -74.5%; for `O=C(NS(=O)(=O)Oc1ccc(F)cc1F)OC[C@@H]1CCCN2CCCCC12` (stereo partly drawn): 17.9%.
As for `CCCOC1CCCN(C(=O)CCc2nnc(-c3ccc4c(c3)OCO4)o2)C1` (stereo not drawn), the “hERG current change (%, negative = inhibition) at 10uM” value is recorded as 16%.
The value for `CC(NC(=O)c1ccco1)c1nc(-c2ccccc2Cl)no1` (stereo not drawn) was 3.9%; that for `CN(C(=O)COC(=O)c1cccc(S(=O)(=O)N(C)c2ccccc2)c1)C1CCCCC1` was -22.9%.
The value for `COc1cc(OC)c(C2=NOC(C(=O)N3CCc4ccccc4C3)C2)cc1Cl` (stereo not drawn) was -34.3%; that for `O=S(=O)(c1ccc(Br)cc1)N1CCN=C1SCc1cccc(F)c1` was 8.08%.
With `O=c1[nH]c(=S)n(C2CC2)c(O)c1C=NCCN1CCOCC1`, the “hERG current change (%, negative = inhibition) at 10uM” value is given as 15.5%.
The same measure for `CCOc1cc(N2CCOCC2)c(OCC)cc1NC(=O)COC(=O)[C@H](Cc1c[nH]c2ccccc12)NC(C)=O`: -6.43%; for `COC(=O)c1cccc(NC(=O)/C=C/c2cccc([N+](=O)[O-])c2)c1`: 3.45%.
With `CCOc1ccc(CN2CCN(Cc3cccn3-c3cccnc3)CC2CCO)cc1` (stereo not drawn), the “hERG current change (%, negative = inhibition) at 10uM” value is -84.1%.
The value for `O=C(N/N=C/c1ccc[nH]1)c1cc2ccccc2cc1O` was 13.1%; that for `O=C1C2C3C=CC(C3)C2C(=O)N1c1ccc2ccccc2n1` (stereo not drawn) was 1.32%; that for `COC(=O)CCCCCN1C(=O)NC(c2ccc(-c3ccccc3)cc2)C(C(=O)OCc2ccccc2)=C1C` (stereo not drawn) was 4.69%.
The same measure for `CC1CCC2(CC1)NC(=O)N(CC(=O)Nc1ccc3c(c1)OCCCO3)C2=O` (stereo not drawn): -4.52%; for `CC(C)[C@@H](C(=O)NC1CC1)N1C(=O)N2CCc3c([nH]c4ccccc34)[C@@]2(C)C1=O`: -6.45%.
For the compound `C/C(=N\NC(=O)COc1ccc([N+](=O)[O-])cc1)C(C)(C)C`, the “hERG current change (%, negative = inhibition) at 10uM” value is on record as -8.02%.
The value for `Cc1ccccc1[N+](=O)[O-]` was 7.56%; that for `O=C(c1cnc(Cl)c(Cl)c1)N1CCN(S(=O)(=O)c2ccc(F)cc2)CC1` was -23.9%.
The value for `CCCCOc1ccc(S(=O)(=O)Nc2cccnc2)cc1` was -7.43%; that for `Cn1nc(C(C)(C)C)c(NC(=O)c2ccc(F)cc2)c1C(C)(C)C` was 2.08%.
The same measure for `Cc1nn(C)c(C)c1S(=O)(=O)N(CC(=O)Nc1nccs1)c1ccc(C(C)C)cc1`: 8.37%; for `Cc1ccc(S(=O)(=O)N2CCN(c3ccc([N+](=O)[O-])cn3)CC2)cc1`: 4.2%; for `CCOc1ccc(Cn2c(C)nc([N+](=O)[O-])c2SCC(O)CCl)cc1[N+](=O)[O-]` (stereo not drawn): -68.2%.
Take `COc1ccc(Br)cc1/C=N/NC(=O)C[n+]1ccccc1.[Cl-]`: the “hERG current change (%, negative = inhibition) at 10uM” value is 25.5%.
The same measure for `CCCCNC(=O)C1CCC(CNc2c(N3CCC(C)CC3)c(=O)c2=O)CC1` (stereo not drawn): 10.4%; for `COc1cc(NC(=O)CSc2nnc(-c3ccncc3)n2C2CCCCC2)ccc1NC(=O)c1ccco1`: -6.13%; for `CC(C)OCCCn1c(=N)c(C(N)=S)cc2c(=O)n3ccccc3nc21`: -81.5%.
The value for `CCCCN(C(=O)COC(=O)c1ccc(C=O)cc1)c1c(N)n(CCC)c(=O)[nH]c1=O` was 3.95%; that for `C#CCOCCOCCOCCNc1nc(N2CCN(C(=O)[C@H]([C@@H](C)CC)n3cc([C@@H](N)Cc4ccc(O)cc4)nn3)CC2)nc(N2CCN(C(=O)[C@H](CCCCN)n3cc([C@@H](N)CC(C)C)nn3)CC2)n1.Cl` was 2.93%.
The value for `CCN(CC(=O)Nc1ccc(OC)cc1)C(=O)c1ccc2c(=O)n3c(nc2c1)CCC3` was 9.77%; that for `CCOC(=O)C1(CCOC)CCN(C(=O)Cc2ccsc2)CC1` was 5.55%; that for `Cc1ccc(N/N=C(\C#N)C(=N)N2CCCCCC2)cc1` was 12.7%.
Consider `CC(=O)NC1CCN(C(=O)N2CCCC2)CC1`, for which the “hERG current change (%, negative = inhibition) at 10uM” value is reported as -14.7%.
The value for `Cc1cc(-n2c(SCCC#N)nnc2-c2cccnc2)ccc1Cl` was -23%.
As to `CCc1ccc(Nc2nc(N)nc(CSc3nc4ccccc4s3)n2)cc1`, the “hERG current change (%, negative = inhibition) at 10uM” value turned out to be 9.26%.
The value for `O=C(NCCC(=O)N1CCC2(CC1)NCCc1[nH]cnc12)c1ccc(Br)cc1` was 14.2%.
The value for `CN(C)S(=O)(=O)c1ccc(N2CCCC2)c(C(=O)N2CCN(S(=O)(=O)c3ccc(F)cc3)CC2)c1` was -31.9%.
The value for `CC(C)(C)Nc1nc(OCC#N)nc(N2CCCCC2)n1` was -37.5%; that for `CC(NC(=O)C1CCCN(S(=O)(=O)c2ccc(-n3cnnn3)cc2)C1)c1ccc(F)cc1` (stereo not drawn) was -7.46%.
Consider `CN(CC(=O)NCc1ccccc1Cl)CC(=O)Nc1cccc(F)c1`, for which the “hERG current change (%, negative = inhibition) at 10uM” value is recorded as -17.8%.
The value for `CC(C)C(NC(=O)c1ccco1)C(=O)NC1CCCCCC1` (stereo not drawn) was 14.6%.
The same measure for `CN(CC(=O)NC1CCCCCCC1)S(=O)(=O)c1cccc2cccnc12`: -28.8%.
The value for `CN(C(=O)c1ccc(-c2nn(C)c(=O)c3ccccc23)cc1)C1CCCCC1` was -3.13%; that for `Cc1oc(-c2ccccc2F)nc1CN1CCC(C(=O)NC2CC2)CC1` was -34.3%; that for `Cc1ccc(S(=O)(=O)N2Cc3ccccc3CC2C(=O)Nn2cnnc2)cc1` (stereo not drawn) was -9.56%.
Take `O=C(Nc1nc(-c2ccccc2)cs1)c1ccc(Br)o1`: the “hERG current change (%, negative = inhibition) at 10uM” value is -9.78%.
The same measure for `O=C(C1CCN(S(=O)(=O)c2ccc(Cl)cc2)CC1)N1CCOCC1`: -6.76%; for `CN(C)S(=O)(=O)c1cc(NC(=O)C2=COCCO2)ccc1Cl`: -3.35%.
The value for `CCOC(=O)/C(=N\Nc1ccccc1)P(=O)(c1ccccc1)c1ccccc1` was -34.6%; that for `Cl.NCCNCCNCCN` was 15.5%; that for `CC(NC(=O)c1ccc(-c2cc(C(F)(F)F)ccc2Cl)o1)c1ccccc1` (stereo not drawn) was 12.9%.
The same measure for `CN(c1ncc(C(F)(F)F)cc1Cl)n1cc(C(N)=O)c2ccccc2c1=O`: -0.468%; for `CCCCc1nnc(NC(=O)CSc2nc(O)c(Cc3ccccc3)c(=O)[nH]2)s1`: 29.8%.
For `CCc1ccc(/C=C2/Sc3ccccc3N(CC(=O)NCCCOC)C2=O)cc1`, the “hERG current change (%, negative = inhibition) at 10uM” value is on record as -13.7%.
The value for `COc1ccc(Cl)cc1NC(=O)CN1CCC(n2nnc3cc(F)ccc32)CC1` was -7.93%.
The value for `CCOc1cccc2sc(N(CCN(C)C)C(=O)CCS(=O)(=O)c3ccccc3)nc12.Cl` was -23.5%; that for `CCN(CC)S(=O)(=O)c1ccc2[nH]cc(C(=O)NCCN3CCCCCC3)c(=O)c2c1` was -6.35%; that for `CN1C/C(=C/c2cccnc2)C(=O)/C(=C/c2cccnc2)C1` was -49.5%.
The value for `CC1S/C(=N\N=C\c2cccc([N+](=O)[O-])c2)N(C(C)(C)C)C1=O` (stereo not drawn) was 11.4%; that for `Cc1ccc(OCCC(=O)OCC(=O)NC(=O)NCc2ccccc2)cc1` was 3.82%.
For `CCC(CC)c1nnc(NC(=O)c2c(C)nn(Cc3ccccc3Cl)c2C)s1`, the “hERG current change (%, negative = inhibition) at 10uM” value was 2.87%.
The value for `COc1ccc(S(=O)(=O)NCCCCC(=O)O)cc1C(=O)O` was -0.701%; that for `COC(=O)c1sc(NC(=S)NC(=O)c2ccc(C)cc2)nc1C` was 14%.
As for `CC(=O)N1c2ccccc2-c2nc3ccccc3n2C1C` (stereo not drawn), the “hERG current change (%, negative = inhibition) at 10uM” value is given as -1.08%.
The same measure for `Cc1cccc(N2C(=O)CC(N3CCN(c4ccc(Cl)cc4)CC3)C2=O)c1` (stereo not drawn): 7.61%; for `COc1ccc(CCNC(=O)c2cc(-c3ccccn3)nc3c(Cl)cccc23)cc1OC`: 10.5%.
The same measure for `O=C(Cc1cccc(NC(=O)C2CCN(C(=O)C3CCCC3)CC2)c1)Nc1cccc(C(=O)N2CCCC2)c1`: 10.9%; for `Br.COCCCN1Cc2ccccc2C1=N`: -12.4%; for `COc1ccccc1OCC(=O)N(Cc1nc(-c2ccccc2)no1)C(C)C`: -12%.
The value for `COc1ccc(C=O)cc1CSc1nnc(COc2cccc3cccnc23)o1` was -1.44%; that for `COc1ccc(/C(C)=N/OCC(=O)Nc2nc3ccccc3s2)cc1` was -3.03%; that for `COc1ccccc1CN1CC(C(=O)N(CCO)Cc2cccs2)CCC1=O` (stereo not drawn) was 10.1%.
As for `Cc1ccc2cccc(S(=O)(=O)n3nc(C)cc3C)c2n1`, the “hERG current change (%, negative = inhibition) at 10uM” value was -11.7%.
The value for `Cc1ccc(NC(=O)COc2ccccc2C#N)cc1S(=O)(=O)N1CCCCCC1` was -23.3%; that for `O=C(COC(=O)/C=C/c1ccc(Br)o1)Nc1ccccc1F` was -13%.
The same measure for `Cc1cc(C)cc(NC(=O)Nc2cccnc2)c1`: 10.9%.
Consider `CC1CCN(C(=O)c2ccc(N3C(=O)c4ccccc4C3=O)cc2)CC1`, for which the “hERG current change (%, negative = inhibition) at 10uM” value worked out at 8.06%.
Consider `CCc1nnc(SCc2cn3c(C)cc(C)nc3n2)n1N`, for which the “hERG current change (%, negative = inhibition) at 10uM” value is recorded as 13.5%.
With `O=C(Nc1ccc(F)cc1)C1C2CCC3C(CCC21)C3(Cl)Cl` (stereo not drawn), the “hERG current change (%, negative = inhibition) at 10uM” value was determined as 20%.
With `CCCN(C(=O)CCCSc1nc2ccccc2[nH]1)c1c(N)n(Cc2ccccc2)c(=O)[nH]c1=O`, the “hERG current change (%, negative = inhibition) at 10uM” value was determined as 8.76%.
